According to ChEMBL document CHEMBL4888484, “Replenishing the malaria drug discovery pipeline: Screening and hit evaluation of the MMV Hit Generation Library 1 (HGL1) against asexual blood stage Plasmodium falciparum ,using a nano luciferase reporter read-out” (2022):
In all, about 150,000 compounds went through this assay and about 540 (0.36%) showed an effect of 50% or more. The list shows a part of the results.

The compounds below were run on Plasmodium falciparum (assay: Primary screen in NF54 nanoGlo assay, in single point, at 2uM, 72h; a lower Z score goes with more inhibition). Conditions: timepoint 72 hour.
Assay type: functional, Erythrocyte

Structure (SMILES) | % Inhibition | Z score
O=C(NCc1cccnc1N1CCOCC1)N1CCN(Cc2ccncc2)CC1 | -8% | 1.42
Cc1cc(N2CCOCC2)n2nc(CN3CCC(Cc4ccccc4)CC3)nc2n1 | -6% | 0.82
Cc1nc(C)c(CN(C)[C@@H](C)CC#N)s1 | 5% | -0.68
CCCc1nnc(NC(=O)NC[C@H](C)N2CCOCC2)s1 | 2% | -0.36
O=C1C[C@H](CNC(=O)N2CC3(CCCCC3)C2)CN1 | 10% | -1.96
COc1ccc2nc(-c3ccc(NS(=O)(=O)c4ccc5c(c4)OCCO5)cc3Cl)sc2c1 | -6% | 0.72
Cc1cc(C)c(C)c(C(=O)N[C@H](C(N)=O)[C@@H](C)O)c1C | -14% | 1.68
FC(F)(F)C(Cc1ccncc1)NCC1COC2(CCOCC2)O1 (configuration not stated) | 5% | -0.51
COc1cc(NC2=NS(=O)(=O)c3ccccc32)c(OC)cc1NC(=O)c1ccccc1 | -9% | 1.43
c1ccc2c(c1)CCCN2Cc1nc(-c2ccsc2)no1 | -3% | 0.52
O=C(c1nc(C2CCCC2)nc2c1OCCO2)N1CCCCC1 | -3% | 0.41
CN(C)c1ccc([C@H](CNC(=O)c2cccs2)N2CCOCC2)cc1 | -10% | 0.95
COc1cc(OC)cc(N2CCC(NC(C3CC3)C3CC3)CC2)c1 | 4% | -0.35
COc1ccc(NC(=O)c2c(O)c3cnn(-c4ccc(Cl)cc4)c3[nH]c2=O)c(OC)c1 | 0% | 0.06
O=C(c1c[nH]c(-c2ccccc2)n1)N1C[C@@H]2[C@@H](CF)[C@@H]2C1 | -4% | 0.72
CC(C)Cc1ccc(CN2CCC3(CC2)[C@H](O)C[C@@H]3OCCO)s1 | -1% | 0.11
CCn1nccc1C(=O)N1C[C@H]2C(=O)N(CCOC)CCN2C(=O)[C@@H]1Cc1ccccc1 | -17% | 1.53
CC(C)(NC(=O)c1ccoc1)c1nc2c(c(C(N)=O)n1)OCO2 | -10% | 1.22
COc1cc(NS(=O)(=O)c2cc3c(cc2C)OCC(=O)N3)ccc1OCC(=O)N1CCOCC1 | -7% | 0.99
CC[C@@H](C(=O)O)N(C)CC(C)(C)c1ccc(C)cc1 | -7% | 0.88
O=C(c1cc2c(cn1)OCCC2)N1CCC(c2nnco2)CC1 | 1% | -0.11
Cc1cccc(C)c1OCCOCCN(C)CCO | -1% | 0.23

Structure (SMILES) | % Inhibition | Z score
COCCN1C[C@@H](CNC(=O)c2cc(Cl)c(C)c(Cl)c2)CC1=O | -4% | 0.4
Cc1nc(CN2C[C@@](C)(c3ccccc3)CCC2=O)n[nH]1 | 0% | 0
COc1ccc(-c2nn3ccn(CC(=O)N(C)C4CCCCC4)c(=O)c3c2CO)cc1 | -1% | 0.14
COCCN1C[C@@H](CNC(=O)c2ccnn2C(C)C)CC1=O | -3% | 0.44
CC(C)(C)n1cnc(C(=O)N2Cc3ccccc3CO2)n1 | 4% | -0.47
O=C(Nc1ccccc1)C(=O)N1CCC(CCC(=O)N2CCCC2)CC1 | -8% | 1.45
CCc1nnc(CN2CC[C@H](c3cccc(C(F)(F)F)c3)C2)o1 | -5% | 0.65
C[C@H](O)C1CCN(c2nnnn2CC2(Cc3ccccc3)CC2)CC1 | -7% | 0.84
CCC(C)(C)C1CCCN1CC(=O)N1CCCC(C(N)=O)C1 (configuration not stated) | -9% | 1.08
COc1ccc(-c2cc(-c3ccc(F)cc3)nc(-c3ccncc3)n2)cc1 | 2% | -0.32
Cc1cc(-c2nnn(CC3CC4CCC3O4)n2)ccc1F (configuration not stated) | -9% | 1.78
Cc1n[nH]c(C)c1C(C)CC(=O)N1CCCC(C2OCCO2)C1 (configuration not stated) | 5% | -0.7
Cc1ncc(CNc2ccc(N(C)CCO)cn2)o1 | -7% | 1.1
C[C@@H](C(=O)N1CCC(O)(CO)CC1)c1ccc(-c2ccccc2)c(F)c1 | -4% | 0.51
NC(CN1CCc2ccccc21)=NOCc1nnc(C2CC2)o1 | 4% | -0.56
O=C(CCn1nnc2ccccc21)N[C@H]1CC[C@H](n2cnnc2)CC1 | -2% | 0.43
Cc1nn(C)cc1S(=O)(=O)Nc1ncn(Cc2ccccc2F)n1 | -33% | 3.88
O=C(CCn1cncn1)NCCCCc1ccccn1 | 9% | -1.34
COc1ccc(OCc2nc(-c3ccc4nnc(C)n4c3)no2)cc1 | -14% | 2.59
CN(C)c1ccccc1NC(=O)NCC(=O)NCC1CC1 | 0% | -0.05
Cc1nc2ccccc2n1CCn1cnc(C#N)c1C#N | -2% | 0.22
CCC(NCC1CCCn2ccnc21)c1ccc(F)cc1 (configuration not stated) | 3% | -0.4

Structure (SMILES) | % Inhibition | Z score
COc1ccc(-n2nc(-c3ccccc3)n(CC(=O)NCC3CC3)c2=O)cc1 | -1% | 0.2
CCOC(=O)c1cnc(CN2CCNC(=O)[C@@H]2CC)s1 | 11% | -1.9
CCC[C@H]1COCCN1Cc1ccc(C(=O)Nc2c(C)cnn2C)cc1 | 11% | -1.28
C[C@H](NC1CCC(C(F)(F)F)CC1)c1ccccc1N(C)C (some centres not stated) | 2% | -0.31
CCOC1(C)CCN(CC(=O)NCc2ccc(C)s2)CC1 | -2% | 0.44
COc1ccc2c(c1)CN(CCC(=O)N(C)C)CC2 | -7% | 0.74
O=C(N[C@H]1CCc2ccccc21)N1CCC(c2ncon2)CC1 | -6% | 1.09
CCn1nc(C)c2c(-c3ccccc3)cc(O[C@@H](C)C(=O)NCCc3ccc(OC)c(OC)c3)nc21 | 8% | -0.88
CC(C)(C)OC(=O)N1CC(c2ccnc(N)n2)C1 | 3% | -0.5
Cc1cc(C(=O)NC[C@@H](O)c2cccc(Br)c2)on1 | -2% | 0.43
Cc1ccc(O)c(C(=O)Nc2ncc(C3CCNCC3)s2)c1 | -11% | 1.35
CN(CCc1noc(C2CCCCC2)n1)S(=O)(=O)c1ccccc1Cl | -9% | 1.45
Cc1cc(N2CCC(NS(C)(=O)=O)CC2)nc2cc3c(cc12)CCC3 | 7% | -1.01
C#CCNC(=O)NCCc1ncc(CC)s1 | -3% | 0.31
CCN1CC2(CCN(C(=O)c3c[nH]c(=O)c(Cl)c3)CC2)CC1=O | -1% | 0.22
Cc1cccc2ncnc(N3CCN(Cc4cccc(F)c4)CC3)c12 | 2% | -0.33
CCc1csc(NC(=O)N(CC)CC(C)(C)O)n1 | -6% | 0.74
C=C[C@H]1OCC[C@@H]1CNC(=O)N1CCC(CN2CCNC2=O)CC1 | -11% | 1.15
O=S(=O)(c1cc(F)c(F)cc1F)N1CCO[C@H](C2CC2)C1 | -9% | 1.27
Cc1ccc(-c2noc(C[C@H]3CCCCNC3=O)n2)c(OC2CCCC2)c1 | 12% | -1.37
c1cnc(-n2cccn2)c(CNc2nc3ccccc3s2)c1 | -16% | 2.52
COCCc1nc(C2CCN(C)CC2)n(Cc2ccccc2C)n1 | -4% | 0.74

Structure (SMILES) | % Inhibition | Z score
CO[C@H]1COCC[C@@H]1Nc1ncnc2[nH]ccc12 | 2% | -0.43
Cn1ccc(C(=O)NC[C@@H]2CCCO2)n1 | -5% | 0.95
Cc1ccc(OCC(=O)Nc2ccc3c(c2)C(=O)N(C)c2cc(C)ccc2O3)cc1 | 11% | -1.24
O=C(CCc1ccccc1Br)N1CC(N2C(=O)CCC2=O)C1 | -15% | 1.7
CCOc1ccc(CNC(=O)c2cccc(Nc3ccnc(-c4ccc(C)cc4)n3)c2)cc1OCC | -22% | 1.96
CO[C@H]1CCOC[C@@H]1NC(=O)N(C)C | -5% | 0.47
COCCc1noc(CNC(=O)CCn2cc(C)cn2)n1 | -16% | 1.98
CC(=O)c1cc(C(=O)c2ccccc2)n2c1c(-c1ccc3ccccc3n1)cc1ccccc12 | 11% | -1.5
C[C@H](C#N)CNS(=O)(=O)c1cc(C(=O)O)cc2c1CCCC2 | -3% | 0.69
CCCC(=O)N1CCCCC[C@H](Nc2ccc3nccnc3n2)C1 | 17% | -2.15
CCOC(=O)c1ccc(C(=O)Oc2ccc(N)cc2)[nH]1 | -17% | 1.98
CCN(CC(C)C)C(=O)C1(S(C)(=O)=O)CCOCC1 | 8% | -0.96
CN1CCN(Cc2ccc(OCCCn3ccnc3)cc2)C[C@@H]1CO | 0% | -0.04
Cn1nccc1[C@H](CO)NC(=O)COc1ccc(F)cc1 | 3% | -0.46
COc1ccc(-c2nc3ccc(C)cn3c2NC(=O)CCC2CCCC2)cc1OC | 5% | -0.65
COC(=O)c1ccc(O[C@@H](C)C(N)=O)cc1 | -7% | 1.27
Cc1ccc(-c2nn(C)c(=O)c3c2CCCC3)cc1S(=O)(=O)NCc1cccnc1 | -11% | 1.62
Cc1nc(CCN2CCCCCC2=O)n(C2Cc3ccccc3C2)n1 | -7% | 0.95
O=C(CCC1CCCC1)Nn1cnc2ccccc2c1=O | -7% | 0.84
COc1ccc(NC(=O)C2CCCCC2)cc1S(=O)(=O)N1CCCCC1 | 7% | -0.78
